# Laboratory results taken from patent US20030186948A1, “O-linked N-acetylglucosamine pathway in the pathogenesis of neurodegeneration and diabetes” (priority 2000, published 2003).
# Biological target: T1, recombinant O-GlcNAcase (Mus musculus, UniProt Q9EQQ9)
# T1 sequence (Q9EQQ9 1-916): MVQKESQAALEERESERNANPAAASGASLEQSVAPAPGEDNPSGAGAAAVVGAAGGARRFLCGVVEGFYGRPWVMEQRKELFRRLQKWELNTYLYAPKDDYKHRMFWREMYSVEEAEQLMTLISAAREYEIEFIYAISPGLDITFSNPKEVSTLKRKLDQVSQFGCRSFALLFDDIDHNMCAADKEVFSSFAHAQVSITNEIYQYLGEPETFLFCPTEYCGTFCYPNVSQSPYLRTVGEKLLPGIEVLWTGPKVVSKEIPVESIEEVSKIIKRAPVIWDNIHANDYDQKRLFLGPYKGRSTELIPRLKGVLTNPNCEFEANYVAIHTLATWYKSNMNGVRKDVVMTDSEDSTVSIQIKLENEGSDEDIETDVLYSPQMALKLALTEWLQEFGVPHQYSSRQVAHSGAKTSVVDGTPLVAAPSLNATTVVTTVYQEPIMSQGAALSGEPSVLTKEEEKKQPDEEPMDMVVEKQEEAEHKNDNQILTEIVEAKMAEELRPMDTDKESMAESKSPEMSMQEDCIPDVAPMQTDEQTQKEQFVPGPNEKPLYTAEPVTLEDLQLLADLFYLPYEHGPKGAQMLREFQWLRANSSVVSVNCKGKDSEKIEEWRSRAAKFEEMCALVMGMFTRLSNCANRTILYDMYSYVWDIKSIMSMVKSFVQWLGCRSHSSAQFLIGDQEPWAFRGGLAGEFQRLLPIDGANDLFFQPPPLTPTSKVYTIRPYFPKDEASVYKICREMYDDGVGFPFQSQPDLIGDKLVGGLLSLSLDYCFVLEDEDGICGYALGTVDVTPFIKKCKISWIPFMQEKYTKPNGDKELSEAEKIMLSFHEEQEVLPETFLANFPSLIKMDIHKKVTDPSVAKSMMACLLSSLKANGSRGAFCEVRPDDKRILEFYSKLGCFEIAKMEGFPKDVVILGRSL
row,Compound,type of inhibition of O-GlcNAcase
1,CN(N=O)C(=O)N[C@H]1C(O)O[C@H](CO)[C@@H](O)[C@@H]1O (mixture of isomers) [streptozotocin],noncompetitive inhibitor
2,CC(=O)N[C@H]1/C(=N/OC(=O)Nc2ccccc2)O[C@H](CO)[C@@H](O)[C@@H]1O [PUGNAC],competitive kinetics
